Data published in PubChem BioAssay AID463173 (ICCB-Longwood Screening Facility, Harvard Medical School, 2010).
Hit rate of the full screen: of about 52,000 compounds, about 4,300 (8.3%) were called active. Cut-off read from the data, not from the text of the source: active = survival mostly below about 52% (no sharp cut-off); inactive = mostly above about 56%. Some of the results follow.

These compounds were tested on DeltatarO mutant (assay: S. aureus survival, RN4220 and DeltatarO strains – OD600, teichoic acid synthesis inhibitors, primary screen (AID 463173)). Conditions: S. aureus RN4220 wild type/DeltatarO growth, OD600, 18 h, active compounds read low, screened at 18.75 µg/mL (by protocol).
For `CC1CCN(S(=O)(=O)c2nnc(NC(=O)c3cccc(F)c3)s2)CC1`, the survival was active: 31%.
For `COc1ccccc1N1CCN(c2cc(C)nc3nc(-c4ccc(Cl)cc4)nn23)CC1`, the survival was active: 38%.
`COc1ccc(OC)c(S(=O)(=O)NCCc2csc3nc(-c4ccccc4)nn23)c1` was tested, and the survival was active: -1%.
In the case of `Cc1ccc(NC(=O)c2cc(S(=O)(=O)N3CCCC3)c[nH]2)c(C)c1`, the survival is reported as inactive: 105%.
In the case of `Cc1cccc(N2CCN(C(=O)c3ccc4c(c3)c(C)c(C)n4C)CC2C)c1` (stereo unspecified), the survival is reported as inactive: 104%.
For `COc1nc(-c2ccc(C)cc2)ccc1-c1noc(-c2ccc(C(C)(C)C)cc2)n1`, the survival was inactive: 47%.
In the case of `Cc1ccc(-n2c(SCC(N)=O)nc3c([nH]c4ccccc43)c2=O)cc1`, the survival is reported as inactive: 130%.
In the case of `Cc1cncn1CCc1nc2c3ccccc3nc(SCC(=O)Nc3ccccc3F)n2n1`, the survival is reported as inactive: 83%.
`Cc1ccc(Cn2c(C)c(CNC(C)c3ccccc3)c(C(=O)O)c2C)cc1` (stereo unspecified) was tested, and the survival was inactive: 125%.
In the case of `Cc1ccc(Cl)cc1N1CCN(c2ncnc3onc(-c4ccc(F)cc4)c23)CC1`, the survival is reported as inactive: 97%.
`Cc1ccc(S(=O)(=O)Cc2nc(-c3ccc(C(=O)NCc4ccccc4F)cc3)oc2C)cc1` was tested, and the survival was inactive: 117%.
For `CC(C)(C)c1ccc(-c2noc(CCC(=O)Nc3cccc(Cl)c3)n2)cc1`, the survival was inactive: 87%.
For `Cc1ccc(S(=O)(=O)c2cn(C)c3cc(N4CCCCC4)c(F)cc3c2=O)cc1`, the survival was inactive: 71%.
For `CC(C)(C)C(=O)NC(Cc1c[nH]c2ccccc12)C(=O)O` (stereo unspecified), the survival was inactive: 100%.
With `COc1ccc(C)cc1NC(=O)N1CCC(CN2CCC(C)CC2)CC1` the survival was inactive: 91%.
In the case of `CCc1c(C)c2ccc(O)c(CN3CCN(c4ccccc4)CC3)c2oc1=O`, the survival is reported as active: 56%.
`CCOc1ccc2oc(=O)cc(CN3CCN(c4ccc(Cl)cc4)CC3)c2c1` was tested, and the survival was inactive: 97%.
In the case of `CC(=O)N1CCc2cc(Br)cc(S(=O)(=O)CCC(=O)Nc3ccc(C)cc3Cl)c21`, the survival is reported as active: 47%.
With `CCOC(=O)c1c(NC(=O)COc2ccc(Cl)cc2C)sc(C(C)=O)c1C` the survival was inactive: 55%.
`CCN1CCN(c2cc(C)c3cc(NC(=O)c4ccccc4F)ccc3n2)CC1` was tested, and the survival was active: 43%.
In the case of `O=c1[nH]cnc2scc(-c3ccsc3)c12`, the survival is reported as inactive: 104%.
`Cc1ccc(N2CCN(c3nc4c(S(=O)(=O)c5ccc(C)c(C)c5)nnn4c4ccccc34)CC2)c(C)c1` was tested, and the survival was inactive: 82%.
In the case of `Cc1c(C(=O)N(Cc2ccc(N(C)C)cc2)CC2CCCO2)oc2ccc(Br)cc12` (stereo unspecified), the survival is reported as inactive: 58%.
For `CCc1cccc(NC(=O)C(CC(C)C)NS(=O)(=O)c2ccc3c(c2)oc(=O)n3C)c1` (stereo unspecified), the survival was inactive: 114%.
With `CCC(=O)N1CCc2cc(CNC(=O)Nc3cc(Cl)ccc3C(=O)OC)ccc21` the survival was inactive: 74%.
`COc1ccccc1CN1CCC(CNC(=O)c2cnn(-c3ccc(C)c(C)c3)c2C2CCN(C(=O)OC(C)(C)C)CC2)CC1` was tested, and the survival was inactive: 91%.
In the case of `N#CCC(=O)N1CCN(c2ccccc2)CC1`, the survival is reported as inactive: 101%.
`Brc1ccc2nc(-c3ccccc3)c(Nc3ccc4c(c3)OCO4)n2c1` was tested, and the survival was inactive: 75%.
In the case of `O=C(c1cc2sccc2n1Cc1ccccc1)N1CCCCC1`, the survival is reported as inactive: 109%.
In the case of `Cc1cc(OCC(=O)NCC2(N3CCOCC3)CCCCC2)ccc1Cl`, the survival is reported as inactive: 67%.
With `CCc1noc(-c2ccc(N3CCCCC3)c([N+](=O)[O-])c2)n1` the survival was inactive: 56%.
For `C=CCNC(=O)c1cc2sccc2n1Cc1ccccc1`, the survival was inactive: 85%.
For `CC(Sc1nnc(-c2ccncc2)o1)C(N)=O` (stereo unspecified), the survival was inactive: 67%.
In the case of `Cc1oc(-c2cccc(Cl)c2)nc1CN1CCC(C(=O)NCCc2ccc(Cl)cc2)CC1`, the survival is reported as inactive: 87%.
For `CCc1ccc(C2=C(C)C(N3CCC(C(=O)NCCc4ccco4)CC3)=NS2(=O)=O)cc1`, the survival was inactive: 83%.
`COc1cccc(OCC(=O)Nc2nnc3n2CCS3)c1` was tested, and the survival was inactive: 78%.
For `Cc1cccc(NC(=O)CSc2nc(=O)n(Cc3cccnc3)c3c2CCC3)c1C`, the survival was inactive: 77%.
In the case of `O=C(NC1CCCCC1)N(Cc1cc2cc3c(cc2[nH]c1=O)OCCO3)C1CCCCC1`, the survival is reported as inactive: 76%.
With `O=C(Nc1cccc(Cl)c1)C1CCCN1S(=O)(=O)c1cccc2cccnc12` (stereo unspecified) the survival was inactive: 99%.
With `Cn1nnnc1SCCNCc1ccc(OCc2ccc(Cl)cc2)cc1` the survival was inactive: 68%.
With `COc1ccccc1-c1nnc(SCC(=O)c2ccc(F)cc2)n1-c1ccccc1` the survival was active: 6%.
With `CCc1ccc(CNC(=O)CN2C(=O)CCn3nc(-c4cn(C)c5ccccc45)cc32)cc1` the survival was inactive: 81%.
In the case of `Cc1cc(Cl)ccc1OCc1cc(=O)n2c3c(sc2n1)CCCC3`, the survival is reported as inactive: 79%.
With `C=Cc1ccc(Cn2c(=O)cc(C)c3c(C)nn(C)c32)cc1` the survival was active: 8%.
In the case of `Cc1cccc(N2CCN(c3c4c(nc5nncn35)CCC4)CC2)c1C`, the survival is reported as inactive: 78%.
For `COc1ccc(S(=O)(=O)c2cn(Cc3ccccc3)c3ccc(OC)cc3c2=O)cc1`, the survival was inactive: 84%.
In the case of `COc1cc(-c2nnc(SCC(=O)Oc3ccccc3Cl)o2)cc(OC)c1OC`, the survival is reported as inactive: 84%.
In the case of `CN(C)c1ccc(C(CNS(=O)(=O)c2ccc(F)cc2)N2CCc3ccccc32)cc1` (stereo unspecified), the survival is reported as active: 32%.
For `COc1ccccc1NC(=O)c1cc(S(=O)(=O)N2CCc3ccccc32)ccc1F`, the survival was inactive: 81%.
For `COc1ccc(NC(=O)c2cc3c(=O)n(Cc4cccnc4)ccc3nc2C)cc1Cl`, the survival was inactive: 106%.
With `Cc1ccn2c(Nc3ccc4c(c3)OCCO4)c(-c3ccc(C)s3)nc2c1` the survival was inactive: 117%.
For `Cc1ccc2nc(SCC(=O)Nc3ccc(C#N)cc3)[nH]c2c1`, the survival was active: 64%.
For `COc1ccc(OC)c(NC(=O)CCc2nc(-c3ccc(C)cc3)no2)c1`, the survival was inactive: 70%.
With `Cc1c(C(=O)N2CCC(C)CC2)c(S(=O)(=O)N2CCN(c3cccc(Cl)c3)CC2)c(C)n1C` the survival was inactive: 94%.
With `COc1ccc(S(=O)(=O)c2cn(Cc3ccccc3)c3cc(F)c(F)cc3c2=O)cc1` the survival was inactive: 112%.
For `CN1C(=O)c2[nH]nc(-c3ccc(F)cc3)c2C1c1ccccn1` (stereo unspecified), the survival was inactive: 57%.
For `COc1ccc(Nc2cc(C(=O)NCc3ccccc3)c3ccccc3n2)cc1OC`, the survival was inactive: 105%.
With `CC1CCC/C(=C(/C#N)c2nc(-c3ccccc3O)cs2)C1` (stereo unspecified) the survival was inactive: 65%.
With `O=c1c(S(=O)(=O)c2ccc(Cl)cc2)cn(Cc2ccc(F)cc2)c2ccc(F)cc12` the survival was inactive: 109%.
`CCOc1ccc(C(=O)NCc2ccc3c(c2)CCN3C(=O)c2ccc(C)cc2)cc1OCC` was tested, and the survival was inactive: 67%.
In the case of `Cc1c(Nc2ncnc3sc4c(c23)CCCC4)c(=O)n(-c2ccccc2)n1C`, the survival is reported as inactive: 91%.
In the case of `CC(C)CCN(Cc1ccco1)C(=O)Cn1ncc2c([nH]c3ccccc32)c1=O`, the survival is reported as inactive: 115%.
In the case of `Cc1cc(C)n(C(=O)CNc2ccccc2Cl)n1`, the survival is reported as inactive: 91%.
In the case of `Nc1cc(S(=O)(=O)C(F)(F)F)cc(S(=O)(=O)C(F)(F)F)c1`, the survival is reported as inactive: 110%.
In the case of `O=C(NC1CCCCCC1)N1CCOCC1`, the survival is reported as inactive: 97%.
With `COc1ccccc1Cc1nc2ccccc2nc1SCC(=O)N1CCC(C)CC1` the survival was inactive: 89%.
`Cc1cccc(C(=O)Nc2ccc(N3CCN(c4ccc(F)cc4)CC3)c(C(=O)O)c2)c1` was tested, and the survival was inactive: 91%.
In the case of `CCOC(=O)c1cc(-c2ccccc2)n(CCCC(=O)Nc2cc(C)ccc2OC)c1C`, the survival is reported as inactive: 82%.
For `COc1ccc(NC(=O)Cn2c(=O)n(Cc3ccc(C(=O)NCc4ccccc4Cl)cc3)c(=O)c3ccccc32)cc1`, the survival was inactive: 83%.
In the case of `COc1ccc(Cn2nnc3c(=O)[nH]c(C4CCN(C(=O)c5ccc(C)cc5)CC4)nc32)cc1OC`, the survival is reported as active: 24%.
For `CCN(CC)CCCNC(=O)CN1N=C(c2ccccc2)CCC1=O`, the survival was inactive: 87%.
In the case of `Cc1cc(F)ccc1NC(=O)Cn1c(=O)ccc2cc(S(=O)(=O)N3CCC(C)CC3)ccc21`, the survival is reported as inactive: 78%.
With `Cc1cccc(NC(=O)CSc2nc3ccc(NC(=O)COc4ccccc4F)cc3s2)c1` the survival was inactive: 94%.
In the case of `Cc1ccc(NC(=O)C2CCCN2S(=O)(=O)c2ccc3c(c2)CCCC(=O)N3)cc1Cl` (stereo unspecified), the survival is reported as inactive: 89%.
With `CC(NC(=O)c1ccco1)c1ccccc1` (stereo unspecified) the survival was inactive: 93%.
For `O=C(CSc1ccc2nc(-c3ccccc3)cn2n1)Nc1cccc(F)c1`, the survival was inactive: 90%.
In the case of `CC(C(=O)N1CCCCC1)N1CCC(N2CCCCC2)CC1` (stereo unspecified), the survival is reported as inactive: 96%.
For `COc1ccc(NC(=O)c2c(NC(=O)Cc3ccccc3)sc3c2CCCC3)cc1`, the survival was inactive: 124%.
For `Cc1cc(C)cc(NC(=O)Cn2c(C(F)(F)F)nc3ccccc32)c1`, the survival was active: 67%.
For `Cc1sc(NC(=O)c2ccccc2F)c(C(=O)O)c1C`, the survival was inactive: 61%.
`Cc1oc(-c2cccc(Cl)c2)nc1Cn1c(SCc2ccccc2F)nc2ccncc21` was tested, and the survival was inactive: 63%.
For `Cc1ccccc1NC(=O)CSc1nnc(-c2cccs2)o1`, the survival was inactive: 71%.
With `CCCCNC(=O)C1CCN(Cc2ccccc2OCC)CC1` the survival was inactive: 73%.
For `COc1ccc(CCNC(=O)c2ccc3c(c2)N(Cc2ccccc2C)C(=O)c2ccccc2S3)cc1OC`, the survival was inactive: 118%.
In the case of `COc1ccccc1NC(=O)CSC1=Nc2ccccc2C2=NC(CC(=O)NCc3cccs3)C(=O)N12` (stereo unspecified), the survival is reported as inactive: 83%.
For `Cc1nn(CC(=O)N2CCN(c3cccc(C(F)(F)F)c3)CC2)c(=O)c2cccn12`, the survival was inactive: 92%.
With `Cc1nn(C)c2c1c(C(F)(F)F)cc(=O)n2C(C)C(=O)NCc1ccccc1Cl` (stereo unspecified) the survival was inactive: 102%.
With `Cc1cc(C)c2c(c1)c1n[nH]c(=S)nc1n2C` the survival was inactive: 76%.
`Cc1ccc(NC(=O)Cn2nnc(C(=O)NCc3cccs3)c2N)cc1Cl` was tested, and the survival was inactive: 92%.
With `COC(=O)c1sccc1S(=O)(=O)N(CC(=O)NCc1ccc(F)cc1)c1ccc(Cl)cc1` the survival was inactive: 88%.
With `COc1ccc(CNC(=O)c2ccc(CNS(=O)(=O)c3ccc(F)cc3)cc2)cc1` the survival was inactive: 82%.
